# Laboratory results published in the supplement of paper PMC4166925.
# ± gives the standard deviation of the averaged measurements. Whole data set: some 33,000 sequences, median “E-score (dimensionless, -0.5 to 0.5)” near -0.046, cut for the highest 2% near 0.36. This is one part of the list.
# Test system: T1, SpTbr T-box DNA-binding domain (GST fusion)
# T1 sequence: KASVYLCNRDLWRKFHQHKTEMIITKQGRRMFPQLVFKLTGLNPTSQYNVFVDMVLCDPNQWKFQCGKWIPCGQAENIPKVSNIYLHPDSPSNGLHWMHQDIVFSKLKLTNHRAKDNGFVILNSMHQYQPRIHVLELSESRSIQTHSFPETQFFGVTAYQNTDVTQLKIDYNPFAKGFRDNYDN
# Test: PBM E-score of 8-mer (E-score (dimensionless, -0.5 to 0.5)); Tbr is Tbrain of the sea star Patiria miniata (Pm) or the sea urchin Strongylocentrotus purpuratus (Sp); higher = stronger binding preference; most listed sequences are background and not binding sites
# Conditions: the construct has about 5 more residues each side
# Protocol: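 Universal protein-binding microarray (Agilent AMADID 016060, 60-bp probes with a 35-bp variable region) incubated with 200 nM GST-fused Strongylocentrotus purpuratus Tbr T-box DNA-binding domain (residues 362-554) in PBS pH 7.5. Scored for every ungapped 8-mer (given with its reverse complement) as E-score (range -0.5 to 0.5; >0.45 counts as bound) and Z-score of median probe intensity. Two replicate arrays (datasets 1 and 2).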
# 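Also: protein at 200 nM in PBS on universal double-stranded arrays.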
row,Sequence,PBM E-score of 8-mer
1,ACCTTGCG,0.318 ± 0.017
2,AAGTCATT,-0.0364 ± 0.011
3,CAATGAGC,-0.00772 ± 0.00032
4,TATAAAAA,-0.255 ± 0.12
5,AGAGGTAG,-0.227 ± 0.024
6,CGGCGTCC,-0.21 ± 0.024
7,CGAGCCCA,-0.139 ± 0.096
8,AGTCGCCC,0.0547 ± 0.015
9,ACCGCTAC,0.0419 ± 0.058
10,CTCGAGAA,0.0154 ± 0.059
11,AGTAGTTA,-0.222 ± 0.061
12,GTAAAACA,-0.0246 ± 0.021
13,AGTCGGAT,-0.175 ± 0.036
14,CGCTATGA,0.0376 ± 0.03
15,ATGCTAGG,-0.274 ± 0.059
16,GCTGGTAA,-0.138 ± 0.021
17,CGGCATCA,0.043 ± 0.011
18,CGTAATGA,-0.117 ± 0.015
19,ATAAGGAT,-0.047 ± 0.0052
20,ACAGCTTA,0.192 ± 0.026
21,CTTGAAGA,-0.116 ± 0.033
22,ACTATACA,-0.109 ± 0.036
23,CGAGGGTA,-0.211 ± 0.033
24,TAATATGA,-0.0359 ± 0.048
25,TGATCCAA,0.0181 ± 0.054

row,Sequence,PBM E-score of 8-mer
1,ATTGCGTA,-0.303 ± 0.074
2,AAGTGGCC,-0.0217 ± 0.037
3,AAGTACTA,-0.147 ± 0.06
4,AATGACGT,-0.0766 ± 0.026
5,ATAGCTAT,-0.2557 ± 0.0024
6,CATCCGCG,0.185 ± 0.047
7,ACGCGTCA,0.318 ± 0.0057
8,GTCTGACA,0.113 ± 0.0026
9,TAACATCA,-0.0199 ± 0.006
10,ACCCAGGG,-0.105 ± 0.0054
11,GAATCCGC,0.0425 ± 0.011
12,TAGGACGA,-0.398 ± 0.01
13,CCGACCGC,-0.0728 ± 0.073
14,AGACCGTG,0.08 ± 0.036
15,ACGTGAGC,0.0515 ± 0.033
16,AGCTCGCC,-0.188 ± 0.034
17,GCATCACA,0.299 ± 0.043
18,GTCTTGCA,-0.125 ± 0.055
19,AATCTACT,-0.126 ± 0.048
20,GCATCGAA,-0.268 ± 0.09
21,GCCTACAC,0.137 ± 0.073
22,ATTCGTGG,-0.1 ± 0.036
23,CTGCGGGA,-0.215 ± 0.063
24,TGCGTGAA,0.3936 ± 0.0023
25,CGAAACAG,-0.0595 ± 0.081

row,Sequence,PBM E-score of 8-mer
1,CAGCTGTC,0.247 ± 0.01
2,AGGTGCAT,-0.00019 ± 0.081
3,GCTACCAC,0.141 ± 0.035
4,AACACCGA,0.228 ± 0.03
5,AAGGGGTA,-0.2 ± 0.05
6,AACTCTCC,-0.064 ± 0.054
7,AGACATGC,-0.0873 ± 0.0045
8,CGCAGATC,-0.0398 ± 0.062
9,CGACTACG,0.0687 ± 0.0023
10,CTGATACA,-0.0236 ± 0.00083
11,AGCCACAC,0.311 ± 0.049
12,AAACTCAT,-0.0314 ± 0.058
13,CGGCGCCG,0.217 ± 0.027
14,TAAACTCA,-0.2 ± 0.037
15,CGAGTCAA,0.00811 ± 0.012
16,ATGCATGA,-0.0376 ± 0.033
17,CTAGACTC,-0.183 ± 0.025
18,AAGCCTAA,-0.216 ± 0.033
19,ATACCGTC,-0.0857 ± 0.022
20,AAGTCTCC,-0.00387 ± 0.021
21,CATGAGCA,-0.049 ± 0.047
22,CAATTGTG,0.225 ± 0.058
23,CTTCATTA,-0.242 ± 0.0057
24,AGCTGACG,0.142 ± 0.026
25,GGACCAAC,-0.109 ± 0.068

row,Sequence,PBM E-score of 8-mer
1,CGACATGA,-0.0342 ± 0.055
2,TAGCTTCA,0.056 ± 0.085
3,CTACTTCC,-0.196 ± 0.069
4,TAGTGATA,0.161 ± 0.081
5,CGAGGTAC,-0.11 ± 0.026
6,AAATGGGC,0.056 ± 0.085
7,ATATTCTA,-0.0979 ± 0.079
8,CATATGTA,-0.129 ± 0.043
9,GACGTAGC,-0.196 ± 0.044
10,ACGCTACG,0.102 ± 0.023
11,CTGTCCTC,0.0372 ± 0.031
12,GTCAGGTA,0.044 ± 0.027
13,ATAGAGCA,-0.208 ± 0.036
14,CGTAAACA,0.277 ± 0.025
15,GTATGTGA,0.256 ± 0.014
16,TCCCTTCA,0.0958 ± 0.018
17,ACACCCAG,0.352 ± 0.017
18,AATAAGGG,-0.1817 ± 0.001
19,CTATCCAA,-0.383 ± 0.079
20,AACATCGG,-0.0763 ± 0.15
21,CACATCGG,0.279 ± 0.04
22,GGCACCTA,0.382 ± 0.015
23,AGCATCTA,-0.0669 ± 0.073
24,AGAGAATA,-0.0768 ± 0.025
25,AAACATTG,0.0255 ± 0.053

row,Sequence,PBM E-score of 8-mer
1,AGTAATTC,-0.219 ± 0.038
2,AGTCGAGC,0.107 ± 0.0035
3,TGTATACA,-0.236 ± 0.0082
4,GTGCATTA,-0.0123 ± 0.027
5,GCAGCCTA,0.1169 ± 0.001
6,ATTTAAGC,-0.224 ± 0.025
7,CGAATCCA,-0.0462 ± 0.039
8,ACTTTGAC,0.134 ± 0.01
9,ATGAAGCA,-0.0756 ± 0.084
10,GATTCCTA,-0.137 ± 0.034
11,ACTAGAAA,-0.163 ± 0.008
12,AACCCAAC,0.0211 ± 0.0073
13,TAGTCCCA,-0.131 ± 0.037
14,AGCGCATG,-0.0989 ± 0.12
15,CATTAGCG,0.121 ± 0.061
16,AGCAGAAA,-0.0706 ± 0.043
17,ATGCTCAG,-0.0846 ± 0.04
18,AGAGATGA,0.0707 ± 0.07
19,CTCAATAC,-0.182 ± 0.029
20,GTTCATGA,-0.0117 ± 0.028
21,GGTCAACA,0.114 ± 0.02
22,CATTTTGC,0.0345 ± 0.041
23,CATCAACC,-0.252 ± 0.051
24,AACCAGCG,-0.0824 ± 0.039
25,AGGGATAC,-0.232 ± 0.028

row,Sequence,PBM E-score of 8-mer
1,GTTGCTGA,0.138 ± 0.024
2,CCTTTTCC,-0.0561 ± 0.086
3,ACAAACAC,0.203 ± 0.03
4,GGAGATGA,-0.127 ± 0.02
5,AAACGAAC,0.011 ± 0.054
6,CGCTACCA,0.271 ± 0.0082
7,TACGAGCA,-0.175 ± 0.078
8,CAACACCA,0.37255 ± 7.8e-05
9,GGTGATGA,0.311 ± 0.0095
10,AAACACGC,0.1542 ± 0.0012
11,CAAGTAGG,0.0636 ± 0.007
12,GACCTCTA,-0.234 ± 0.033
13,GACGATCA,-0.115 ± 0.071
14,ACGTCGCG,0.182 ± 0.037
15,GTCATAAA,-0.00255 ± 0.054
16,GCTTTGGA,-0.0967 ± 0.038
17,AACATCGC,0.0569 ± 0.065
18,CAACTCCA,0.0927 ± 0.053
19,AATTGGAT,-0.0299 ± 0.013
20,ATTAAAAT,-0.126 ± 0.06
21,CTTATTCA,-0.0323 ± 0.066
22,TAATAAGA,-0.179 ± 0.015
23,CGGGACTC,-0.0785 ± 0.012
24,ATCCCTGG,-0.168 ± 0.072
25,AGAAATAT,0.00487 ± 0.067

row,Sequence,PBM E-score of 8-mer
1,AATAACTA,0.0245 ± 0.099
2,CGTCGAGA,-0.0352 ± 0.014
3,GACGTGGC,0.115 ± 0.014
4,CGGAGTAA,-0.0963 ± 0.081
5,CCATTAAG,-0.267 ± 0.012
6,AAAACATT,-0.106 ± 0.092
7,GCAATGAC,0.0858 ± 0.024
8,CGGTAGTC,-0.352 ± 0.046
9,TCCCACAA,-0.0771 ± 0.052
10,ATGCAAGA,-0.335 ± 0.026
11,GAAGTCTA,-0.215 ± 0.047
12,ACCAGGCG,0.189 ± 0.05
13,AGGATAAT,-0.0969 ± 0.042
14,AACATCTT,-0.183 ± 0.015
15,AGCATCGA,-0.0977 ± 0.0023
16,TGTGCGAA,0.458 ± 0.0092
17,GCACGGGA,-0.19 ± 0.044
18,GACCTTTA,-0.242 ± 0.0044
19,CTGCCCGC,-0.112 ± 0.11
20,CGGTTATA,-0.00559 ± 0.033
21,GAAGCGTA,-0.0732 ± 0.0097
22,ACTGAGGC,0.0776 ± 0.12
